The results in this text go back to publication PMC9911399, “Two distinct binding modes provide the RNA-binding protein RbFox with extraordinary sequence specificity”.

To fix the notation:
T1: RBFOX1 RRM RbFoxmut (Fox-RRM*) (Homo sapiens, UniProt Q9NWB1 109-208, R118D;E147R;N151S;E152T)
T1 sequence: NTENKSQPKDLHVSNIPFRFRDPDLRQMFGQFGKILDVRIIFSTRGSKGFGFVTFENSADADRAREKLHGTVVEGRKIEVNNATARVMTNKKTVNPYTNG

B1: AAAUUAA (DNA:RNA)
RNA: GGGAGACCGGAAUUCAGAUUGUCCAAAUUAAUUAAAUCCCGUCGUAGCCACCA
DNA 1: CAATCTGAATTCCGGTCTCCC
DNA 2: TGGTGGCTACGACGGGATT
B2: ACUGGGG (DNA:RNA)
RNA: B1 RNA with A26C, A27U, U28G, U29G, A30G, A31G
DNA 1: CAATCTGAATTCCGGTCTCCC
DNA 2: TGGTGGCTACGACGGGATT
B3: GUCAGGA (DNA:RNA)
RNA: B1 RNA with A25G, A26U, A27C, U28A, U29G, A30G
DNA 1: CAATCTGAATTCCGGTCTCCC
DNA 2: TGGTGGCTACGACGGGATT
B4: GUUACCU (DNA:RNA)
RNA: GGGAGACCGGAAUUCAGAUUGUCCGUUACCUUUAAAUCCCGUCGUAGCCACCA
DNA 1: CAATCTGAATTCCGGTCTCCC
DNA 2: TGGTGGCTACGACGGGATT
B5: UAGGGCU (DNA:RNA)
RNA: B4 RNA with G25U, U26A, U27G, A28G, C29G
DNA 1: CAATCTGAATTCCGGTCTCCC
DNA 2: TGGTGGCTACGACGGGATT
B6: AGACGUG (DNA:RNA)
RNA: B1 RNA with A26G, U28C, U29G, A30U, A31G
DNA 1: CAATCTGAATTCCGGTCTCCC
DNA 2: TGGTGGCTACGACGGGATT
B7: CUUUUGC (DNA:RNA)
RNA: B1 RNA with A25C, A26U, A27U, A30G, A31C
DNA 1: CAATCTGAATTCCGGTCTCCC
DNA 2: TGGTGGCTACGACGGGATT
B8: ACAACUG (DNA:RNA)
RNA: B1 RNA with A26C, U28A, U29C, A30U, A31G
DNA 1: CAATCTGAATTCCGGTCTCCC
DNA 2: TGGTGGCTACGACGGGATT
B9: CAAUUAU (DNA:RNA)
RNA: B1 RNA with A25C, A31U
DNA 1: CAATCTGAATTCCGGTCTCCC
DNA 2: TGGTGGCTACGACGGGATT
B10: ACUGGUU (DNA:RNA)
RNA: B4 RNA with G25A, U26C, A28G, C29G, C30U
DNA 1: CAATCTGAATTCCGGTCTCCC
DNA 2: TGGTGGCTACGACGGGATT
B11: ACGGCAC (DNA:RNA)
RNA: B1 RNA with A26C, A27G, U28G, U29C, A31C
DNA 1: CAATCTGAATTCCGGTCTCCC
DNA 2: TGGTGGCTACGACGGGATT
B12: AGCGACG (DNA:RNA)
RNA: B1 RNA with A26G, A27C, U28G, U29A, A30C, A31G
DNA 1: CAATCTGAATTCCGGTCTCCC
DNA 2: TGGTGGCTACGACGGGATT
B13: UUGCAGC (DNA:RNA)
RNA: B4 RNA with G25U, U27G, A28C, C29A, C30G, U31C
DNA 1: CAATCTGAATTCCGGTCTCCC
DNA 2: TGGTGGCTACGACGGGATT
B14: UACGUGC (DNA:RNA)
RNA: B1 RNA with A25U, A27C, U28G, A30G, A31C
DNA 1: CAATCTGAATTCCGGTCTCCC
DNA 2: TGGTGGCTACGACGGGATT
B15: GAAGGUC (DNA:RNA)
RNA: B1 RNA with A25G, U28G, U29G, A30U, A31C
DNA 1: CAATCTGAATTCCGGTCTCCC
DNA 2: TGGTGGCTACGACGGGATT
B16: AACGGAA (DNA:RNA)
RNA: B1 RNA with A27C, U28G, U29G
DNA 1: CAATCTGAATTCCGGTCTCCC
DNA 2: TGGTGGCTACGACGGGATT
B17: AAUUCGU (DNA:RNA)
RNA: B1 RNA with A27U, U29C, A30G, A31U
DNA 1: CAATCTGAATTCCGGTCTCCC
DNA 2: TGGTGGCTACGACGGGATT
B18: GUUGCGC (DNA:RNA)
RNA: B4 RNA with A28G, C30G, U31C
DNA 1: CAATCTGAATTCCGGTCTCCC
DNA 2: TGGTGGCTACGACGGGATT
B19: UUCCGGU (DNA:RNA)
RNA: B4 RNA with G25U, U27C, A28C, C29G, C30G
DNA 1: CAATCTGAATTCCGGTCTCCC
DNA 2: TGGTGGCTACGACGGGATT
B20: UUGACAC (DNA:RNA)
RNA: B4 RNA with G25U, U27G, C30A, U31C
DNA 1: CAATCTGAATTCCGGTCTCCC
DNA 2: TGGTGGCTACGACGGGATT

Changes are numbered by the printed parent chain; changes in the protein carry UniProt numbers. The list shows a part of the results.

In the experiment the target is T1, RBFOX1 RRM RbFoxmut (Fox-RRM*). Nature of the experiment: EMSA; HiTS-Eq, 1 nM pool, 10 min; buffer printed only for the single-RNA assays: 10 mM Tris pH 7.5, 150 mM NaCl, 3.4 mM EDTA, 0.001% NP-40, 30 C. The settings on record: tags: His6 N-terminal (pET28a); label: 5' 32P. The essentials: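 A pool of RNA with 7 randomized nucleotides, 5′-radiolabelled and with DNA-annealed flanks, was equilibrated at 1 nM for 10 min in 50 µL with purified RbFox RRM, wild type or mutant, across increasing protein concentrations. Free RNA was separated by 8% native PAGE, excised, reverse-transcribed, barcoded by PCR and sequenced. Relative association constants were obtained from read-count changes of each RNA species versus the control reaction and normalised to the cognate motif.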
For orientation: Mobility shift assays separate free from complexed probe on a gel.
Consider B1, for which the binding signal was 0.0964 KA relative to UGCAUGU. For B2, the binding signal is 0.106 KA relative to UGCAUGU.

For B3, the binding signal is 0.0603 KA relative to UGCAUGU. On to B4, for which the binding signal was 0.121 KA relative to UGCAUGU.

As for B5, the binding signal was 0.0664 KA relative to UGCAUGU. Next, B6: 0.142 KA relative to UGCAUGU. The same measure for B7: 0.115 KA relative to UGCAUGU; for B8: 0.067 KA relative to UGCAUGU; for B9: 0.119 KA relative to UGCAUGU. Next, B10: 0.0929 KA relative to UGCAUGU; B11: 0.0844 KA relative to UGCAUGU; B12: 0.115 KA relative to UGCAUGU. Take B13: the binding signal is 0.0871 KA relative to UGCAUGU. The same measure for B14: 0.136 KA relative to UGCAUGU; for B15: 0.0774 KA relative to UGCAUGU; for B16: 0.103 KA relative to UGCAUGU. Next, B17: 0.0995 KA relative to UGCAUGU. The same measure for B18: 0.137 KA relative to UGCAUGU; for B19: 0.0766 KA relative to UGCAUGU; for B20: 0.0618 KA relative to UGCAUGU.
